Patent publication US20100126880A1 (priority 2006, published 2010)

How the values were obtained:
[1] = tested on: double-stranded salmon sperm DNA

| Compound | decrease in ND absorption bands at 362 and 383 nm [1] | red shifts of ND absorption bands [1] | decrease of fluorescence (dsDNA) | decrease in ND absorption band at 363 and 387 nm [1] |
| --- | --- | --- | --- | --- |
| N[3-(imidazol-1-yl)propyl]-N′-[8-((2,3-dihydrothieno[3,4-b][1,4]dioxin-3-yl)methoxy)-3,6-dioxaoctyl]-1,4,5,8-naphthalenetetracarboxydiimide complex with Os(bpy)2Cl2 [EDOT-ND-Os] | 40% | ~3 nm | 50% |  |
| O=C1c2ccc3c4c(ccc(c24)C(=O)N1CCOCCOCCOCCCC1COc2cscc2O1)C(=O)N(CCOCCOCCOCCCC1COc2cscc2O1)C3=O (stereo not shown) [Compound 4c] |  |  |  | 42% |
